# From the supplement of paper PMC8728848
# Some of the results follow.
# B1: NanI (Corynebacterium diphtheriae), C6JSW7 (protein)
# chain: MTNTLESNPMTTTTGALTITFATTCDGPLAHIPHHLDLNIIHGRIQGTTAHRRIDAEDPDGLDDGLPHHLCLSVDTTGTHLFIDGYEAFSTTQTEWFDTSELTLNPHGDLTIIDHQILNHAPTPRQARNLAPAAEPLVWFAGSHLSTRDTQRISHLTHGSLRLLMKTRGTGQGGVAFQAHTINGDLTLEIIDGTLIFSVRCHDEDYVRITAPGRWDDGQIYDVVIVCGRGATDIYVDGQQLIHSPGAAFFNDLSGELSVHIGTAASGVRLFGEVQSGMIYPHVFNHHQVQRLATVEPIATQALFDCLLDGAQSYRIPSLITTDSGVIIAGADKRVSIANDAPNDIDFVLRRSVDGGRTWQPPRTILQLPDTACVTDSVLLQDHTTGRIFAFLDQFPAGIGQPNAAFGTGFDADGNRIGHFADGSTCTMPREVDQLEASFFSDPHTAPPGIVFQHPSCHLWMLTSDDDGLTWSTPRDLTPDVKEEWMRFCGTSPGNGIQLQRDTHAGRLLIPMYYTKGDQFFAAALYSDDHGDTWHRGESPDLEMYESTLVEASDGSVLLWARNQHPSGAVAHARSTDGGHSWSQVTFNPNVPEIFSQPNALRVTNPDGIIFANASQLLPFRGRGVLRMSTNDGASWQHNRVFNPRHYVYQCMTQLPDGSIGLLWEREMQGLFFSIIPMTWIMQGYAL
# Assays:
# Assay in all cases: glycan array binding signal (z-score within array); higher = stronger binding
# Settings in all cases: glycan notation: IUPAC condensed, linker removed
# [1] = molecular target: Gal(b1-3)GlcNAc(a1-6)Gal(b1-4)GlcNAc
# Summary of the method: (§1)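 Glycan array binding is given as a within-array Z-score, which can be read as non-binding when negative. The arrays, 3228 of them, came from the Consortium for Functional Glycomics database and were retained only where the protein sequence was available. Z-scores were averaged across arrays of the same protein sequence at different concentrations or buffers and across linkers.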
# [2] = molecular target: Gal(b1-3)GlcNAc(b1-2)Man(a1-3)[Gal(b1-3)GlcNAc(b1-2)Man(a1-6)]Man(b1-4)GlcNAc(b1-4)GlcNAc
# Summary of the method: as §1
# [3] = molecular target: Gal(b1-3)GlcNAc(b1-2)Man(a1-3)[Gal(b1-3)GlcNAc(b1-2)Man(a1-6)]Man(b1-4)GlcNAc(b1-4)[Fuc(a1-6)]GlcNAc
# Summary of the method: as §1
# [4] = molecular target: Gal(b1-3)GlcNAc(b1-2)[Gal(b1-3)GlcNAc(b1-6)]Man(a1-6)[Gal(b1-3)GlcNAc(b1-2)Man(a1-3)]Man(b1-4)GlcNAc(b1-4)GlcNAc
# Summary of the method: as §1
# [5] = molecular target: Gal(b1-3)GlcNAc(b1-3)Gal(b1-3)GlcNAc
# Summary of the method: as §1
# [6] = molecular target: Gal(b1-3)GlcNAc(b1-3)Gal(b1-4)Glc
# Summary of the method: as §1
# [7] = molecular target: Gal(b1-3)GlcNAc(b1-3)Gal(b1-4)GlcNAc
# Summary of the method: as §1
# [8] = molecular target: Gal(b1-3)GlcNAc(b1-3)Gal(b1-4)GlcNAc(b1-6)[Gal(b1-3)GlcNAc(b1-3)]Gal(b1-4)Glc
# Summary of the method: as §1
# [9] = molecular target: Gal(b1-3)GlcNAc(b1-3)Gal(b1-4)[Fuc(a1-3)]GlcNAc(b1-6)[Gal(b1-3)GlcNAc(b1-3)]Gal(b1-4)Glc
# Summary of the method: as §1
# [10] = molecular target: Gal(b1-3)GlcNAc(b1-3)GalNAc
# Summary of the method: as §1
# [11] = molecular target: Gal(b1-3)GlcNAc(b1-6)Gal(b1-4)GlcNAc
# Summary of the method: as §1
# [12] = molecular target: Gal(b1-3)[Fuc(a1-4)]GlcNAc
# Summary of the method: as §1
# [13] = molecular target: Gal(b1-3)[Fuc(a1-4)]GlcNAc(b1-2)Man(a1-3)[Gal(b1-3)[Fuc(a1-4)]GlcNAc(b1-2)Man(a1-6)]Man(b1-4)GlcNAc(b1-4)GlcNAc
# Summary of the method: as §1
# [14] = molecular target: Gal(b1-3)[Fuc(a1-4)]GlcNAc(b1-2)Man(a1-3)[Gal(b1-3)[Fuc(a1-4)]GlcNAc(b1-2)Man(a1-6)]Man(b1-4)GlcNAc(b1-4)[Fuc(a1-6)]GlcNAc
# Summary of the method: as §1
# [15] = molecular target: Gal(b1-3)[Fuc(a1-4)]GlcNAc(b1-3)Gal(b1-3)[Fuc(a1-4)]GlcNAc
# Summary of the method: as §1
# [16] = molecular target: Gal(b1-3)[Fuc(a1-4)]GlcNAc(b1-3)Gal(b1-4)GlcNAc
# Summary of the method: as §1
# [17] = molecular target: Gal(b1-3)[Fuc(a1-4)]GlcNAc(b1-3)Gal(b1-4)[Fuc(a1-3)]GlcNAc
# Summary of the method: as §1
# [18] = molecular target: Gal(b1-3)[GlcNAc(b1-6)]GalNAc
# Summary of the method: as §1
# [19] = molecular target: Gal(b1-3)[Neu5Ac(a2-6)]GalNAc
# Summary of the method: as §1
# [20] = molecular target: Gal(b1-3)[Neu5Ac(a2-6)]GlcNAc(b1-6)Gal(b1-4)Glc
# Summary of the method: as §1
# [21] = molecular target: Gal(b1-3)[Neu5Ac(b2-6)]GalNAc
# Summary of the method: as §1
# Gal(b1-4)Gal = molecular target: Gal(b1-4)Gal
# Summary of the method: as §1
# [22] = molecular target: Gal(b1-4)GalNAc(a1-3)[Fuc(a1-2)]Gal(b1-4)GlcNAc
# Summary of the method: as §1
# [23] = molecular target: Gal(b1-4)GalNAc(b1-3)[Fuc(a1-2)]Gal(b1-4)GlcNAc
# Summary of the method: as §1
# Gal(b1-4)Glc = molecular target: Gal(b1-4)Glc
# Summary of the method: as §1
# Gal(b1-4)Glc6S = molecular target: Gal(b1-4)Glc6S
# Summary of the method: as §1
# Gal(b1-4)GlcNAc = molecular target: Gal(b1-4)GlcNAc
# Summary of the method: as §1
# [24] = molecular target: Gal(b1-4)GlcNAc(a1-6)Gal(b1-4)GlcNAc
# Summary of the method: as §1
# Gal(b1-4)GlcNAc(b1-2)Man = molecular target: Gal(b1-4)GlcNAc(b1-2)Man
# Summary of the method: as §1
# [25] = molecular target: Gal(b1-4)GlcNAc(b1-2)Man(a1-3)Man(b1-4)GlcNAc(b1-4)GlcNAc
# Summary of the method: as §1
binder,measurement,setting,value
B1,glycan array binding signal (z-score),[1],-0.445
same,glycan array binding signal (z-score),[2],-0.332
same,glycan array binding signal (z-score),[3],0.264
same,glycan array binding signal (z-score),[4],-0.253
same,glycan array binding signal (z-score),[5],-0.24
same,glycan array binding signal (z-score),[6],-0.513
same,glycan array binding signal (z-score),[7],-0.639
same,glycan array binding signal (z-score),[8],-1
same,glycan array binding signal (z-score),[9],-0.386
same,glycan array binding signal (z-score),[10],-1.11
same,glycan array binding signal (z-score),[11],0.002
same,glycan array binding signal (z-score),[12],0.17
same,glycan array binding signal (z-score),[13],1.18
same,glycan array binding signal (z-score),[14],0.086
same,glycan array binding signal (z-score),[15],-0.534
same,glycan array binding signal (z-score),[16],0.773
same,glycan array binding signal (z-score),[17],0.271
same,glycan array binding signal (z-score),[18],-0.012
same,glycan array binding signal (z-score),[19],-0.562
same,glycan array binding signal (z-score),[20],-0.766
same,glycan array binding signal (z-score),[21],-0.195
same,glycan array binding signal (z-score),Gal(b1-4)Gal,-0.102
same,glycan array binding signal (z-score),[22],-0.044
same,glycan array binding signal (z-score),[23],-0.036
same,glycan array binding signal (z-score),Gal(b1-4)Glc,-0.063
same,glycan array binding signal (z-score),Gal(b1-4)Glc6S,0.582
same,glycan array binding signal (z-score),Gal(b1-4)GlcNAc,-0.048
same,glycan array binding signal (z-score),[24],-0.174
same,glycan array binding signal (z-score),Gal(b1-4)GlcNAc(b1-2)Man,0.486
same,glycan array binding signal (z-score),[25],0.048
